# Measured values as given in the antibiotic and cytotoxicity screens of Wong et al. (2023).
# Some of the results follow.
# System: HSkMC (human skeletal muscle cells)
# Test: cytotoxicity call (relative viability < 0.9)
# Conditions: 10 µM
row,Structure (SMILES),cytotoxicity call
1,C[C@@H]1CCCCO[C@@H](CN(C)Cc2ccccc2)[C@H](C)CN([C@@H](C)CO)C(=O)c2cc(NC(=O)c3ccccc3)ccc2O1,inactive
2,C[C@@H]1CN([C@H](C)CO)C(=O)Cc2cc(NS(C)(=O)=O)ccc2O[C@@H]1CN(C)Cc1ccc(C(=O)Nc2ccccc2N)cc1,inactive
3,C[C@H]1CN([C@@H](C)CO)S(=O)(=O)c2ccc(Br)cc2O[C@@H]1CN(C)CC1CCOCC1,inactive
4,COc1ccc([Si](C)(C)[C@@H]2[C@@H](CCO)O[C@]3(C(=O)N(Cc4cccc(N5CCCCC5=O)c4)c4ccccc43)[C@H]2C)cc1,inactive
5,C[C@@H]1CN([C@H](C)CO)C(=O)c2cc(C#CCN(C)C)cnc2O[C@@H]1CN(C)C(=O)CN1CCOCC1,inactive
6,COc1ccc(NC(=O)N(C)C[C@@H]2OCCCC[C@H](C)Oc3ccc(NS(=O)(=O)c4ccc(Cl)cc4)cc3C(=O)N([C@H](C)CO)C[C@H]2C)cc1,inactive
7,C[C@@H]1CCCCO[C@@H](CN(C)S(=O)(=O)c2ccc(F)cc2)[C@@H](C)CN([C@@H](C)CO)C(=O)c2cc(NC(=O)CCC(F)(F)F)ccc2O1,inactive
8,C[C@@H]1CN([C@H](C)CO)C(=O)Cc2cc(NC(=O)CCCCCC(=O)Nc3ccccc3N)ccc2O[C@H]1CN(C)S(=O)(=O)c1cn(C)cn1,inactive
9,COc1ccc(S(=O)(=O)N[C@H]2C=C[C@H](CC(=O)N3CCC(Cc4ccccc4)CC3)O[C@H]2CO)cc1,inactive
10,C[C@@H]1CCCCO[C@@H](CN(C)Cc2ccc3c(c2)OCO3)[C@@H](C)CN([C@H](C)CO)C(=O)c2cc(NC(=O)CCCCCC(=O)Nc3ccccc3N)ccc2O1,inactive
11,CCOC(=O)[C@H](N)/C=C(\C)CP(=O)(O)O,inactive
12,C[C@@H]1CCCCO[C@@H](CN(C)Cc2ccccc2)[C@@H](C)CN([C@@H](C)CO)C(=O)c2cc(NS(=O)(=O)c3cccs3)ccc2O1,inactive
13,CNC(=O)Cn1c(=O)c2c(OC)ccnc2n(C)c1=O,inactive
14,O=C(C[C@@H]1CC[C@@H]2[C@H](COC[C@H](O)CN2C(=O)c2ccc3c(c2)OCO3)O1)NC1Cc2ccccc2C1,inactive
15,COc1ccc(NC(=O)Nc2cccc3c2O[C@H](CN(C)S(C)(=O)=O)[C@H](C)CN([C@@H](C)CO)C3=O)cc1,inactive
16,Cc1ccc(OC(=O)N(C)C[C@@H]2OCc3ccccc3-c3ccccc3C(=O)N([C@H](C)CO)C[C@H]2C)cc1,inactive
17,C[C@H](CO)N1C[C@H](C)[C@H](CN(C)C(=O)c2ccccc2)OCCCC[C@H](C)Oc2ccc(NS(=O)(=O)c3ccc(Cl)cc3)cc2C1=O,inactive
18,O=[N+]([O-])c1cccc2c1nnn2[C@H](CO)OCCO,inactive
19,O=C(CN1CCOCC1)N[C@@H]1CC[C@H](CCn2cc(C3CCCC3)nn2)O[C@H]1CO,inactive
20,C[C@@H]1CN([C@H](C)CO)C(=O)c2cccc(NC(=O)C3CC3)c2O[C@@H]1CN(C)Cc1ccc(Oc2ccccc2)cc1,inactive

row,Structure (SMILES),cytotoxicity call
1,C[C@@H]1CN([C@@H](C)CO)C(=O)c2cc(NC(=O)CCC(F)(F)F)ccc2O[C@H]1CN(C)Cc1ccc(C(=O)Nc2ccccc2N)cc1,inactive
2,COc1ccc(COC[C@]23Oc4ccccc4[C@H]([C@H]2CO[Si](C)(C)C(C)(C)C)N(C(=O)CC(C)=O)C(=O)N3C)cc1,inactive
3,C[C@@H]1CN([C@@H](C)CO)C(=O)c2cc(NS(=O)(=O)c3cn(C)cn3)ccc2O[C@@H]1CN(C)S(=O)(=O)c1cn(C)cn1,inactive
4,C[C@@H]1CN([C@@H](C)CO)C(=O)Cc2cc(NC(=O)CCC(F)(F)F)ccc2O[C@H]1CN(C)C(=O)Nc1cccc2ccccc12,inactive
5,CCNC(=O)C[C@@H]1C=C[C@H](NC(=O)C2CC2)[C@@H](CO)O1,inactive
6,C[C@H](CO)N1C[C@H](C)[C@H](CN(C)S(=O)(=O)c2ccccc2)Oc2ccc(NS(=O)(=O)c3cccs3)cc2CC1=O,inactive
7,C[C@@H]1CCCCO[C@H](CN(C)CC2CCCCC2)[C@H](C)CN([C@@H](C)CO)C(=O)c2cc(NC(=O)NC3CCCCC3)ccc2O1,inactive
8,Nc1ccc(C(=O)[O-])cc1.[K+],inactive
9,CC(C)NC(=O)N(C)C[C@@H]1OCc2cn(nn2)CCCC(=O)N([C@H](C)CO)C[C@@H]1C,inactive
10,O=C(c1cnn2c1OCCC2)N1CC(O)C1,inactive
11,COCCN1C(=O)C[C@@H]2[C@@H]1CCN2C(=O)c1csnn1,inactive
12,Cc1ccc(S(=O)(=O)N(C)C[C@@H]2OCCCC[C@@H](C)Oc3ccc(NS(C)(=O)=O)cc3C(=O)N([C@H](C)CO)C[C@@H]2C)cc1,inactive
13,CNC[C@@H]1OCCCC[C@@H](C)Oc2ccc(NS(=O)(=O)c3cn(C)cn3)cc2C(=O)N([C@@H](C)CO)C[C@H]1C,inactive
14,COc1cc(C=CC(N)=O)cc(OC)c1OC,inactive
15,Oc1ccc2c(c1)OCC1(O)Cc3cc(O)c(O)cc3C21 (stereo not given),inactive
16,C[C@H](CO)N1C[C@H](C)[C@H](CN(C)Cc2ccc(C(=O)O)cc2)Oc2ccc(NC(=O)c3ccncc3)cc2C1=O,inactive
17,C[C@@H]1CCCCO[C@@H](CN(C)C(=O)Nc2ccc(C(F)(F)F)cc2)[C@H](C)CN([C@@H](C)CO)C(=O)c2cc(NC(=O)C3CCCCC3)ccc2O1,inactive
18,C[C@H]1CCCCO[C@@H](CN(C)C(=O)C2CCCCC2)[C@@H](C)CN([C@@H](C)CO)C(=O)c2cc(NC(=O)c3ccccc3)ccc2O1,inactive
19,C[C@@H]1CCCCO[C@@H](CN(C)C(=O)Nc2ccc(C(F)(F)F)cc2)[C@@H](C)CN([C@@H](C)CO)C(=O)c2cc(NC(=O)C3CCCCC3)ccc2O1,inactive
20,C[C@@H]1CN([C@H](C)CO)S(=O)(=O)c2ccc(-c3cccc(C#N)c3)cc2O[C@@H]1CN(C)C(=O)c1ccncc1,inactive
